Results on 44 sequences are retold here after the supplement of paper PMC11417369.

The list shows a part of the results.

In this test the test system is PfHDP1 homeodomain (GST-tagged). Nature of the test: gcPBM binding intensity (ln(normalized median fluorescence intensity)); higher = stronger DNA binding. In outline:
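GST-tagged P. falciparum DNA-binding domains produced in E. coli were incubated for 1 h on an Agilent 4 × 180k array of primer-extended double-stranded 36-bp intergenic genomic probes with negative controls. Binding intensity is the highest Masliner-normalised natural-log median intensity across replicate spots of either probe orientation, with bound protein detected by Alexa488 anti-GST antibody at 488 nm.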
Consider “TCATCATGTATGTACACACATACATATATTATGTAC [CACACA_site1386]”, for which the “gcPBM binding intensity (ln)” value was found to be 6.37.
TATAAGTAGATAAGGGTGCACAATATAAATATATAG: the “gcPBM binding intensity (ln)” value was determined as 9.19.
With “CTTTTTGAAATATTAACACACATTTTGTTAATGAAT [CACACA_site6087]”, the “gcPBM binding intensity (ln)” value is 6.28.
Take “ATATTAATTTCTCATGCATGTTCTTCCCAATTGTAA [TGCATGCA_site425]”: the “gcPBM binding intensity (ln)” value was 7.02.
Then “GGTTAGACGAAATATACATGCAATGGAAAATAAGTT [TGCATGCA_site23]”, with 7.07; and “ATTTTTATTAGTTATTGTACTTATTATTTATTAATT [XGTACX_site2568]”, with 6.52; and “TATAGATATATACGGTGTACATACATAAAAAAAAAA [XGTACX_site1648]”, with 6.44.
Consider “TATAAAGAAATCATTACACACAAATAAATACATACA [CACACA_site2675]”, for which the “gcPBM binding intensity (ln)” value is 6.89.
Then “TATAGTCAACTAGTCACACATATAATTATATATATA [CACACA_site5872]”, with 7.45; and “ATATATATACATATAACACACACATATATATATATA [CACACA_site8827]”, with 9.18; and “TAATTCACATTTTATACACACATTCGAACCTTTTTT [CACACA_site3341]”, with 6.88.
To “TTGTATTTATTTATGGGAGGATTATAATCATTGTAG [GTGCAC_negctrl_site268]” belongs 6.76.
“TGAAATAAAATTTGTACACACATATTTATTTATATA [CACACA_site6421]”: the “gcPBM binding intensity (ln)” value came to 6.27.
As for “TGCATTATATTAAATTTTTTATTTGTTGATGTTATA [GTGCAC_negctrl_site371]”, the “gcPBM binding intensity (ln)” value was found to be 6.23.
To “AAATAAAAGATATTTTTACACACTTTTGATGAGATC [CACACA_site9000]” belongs 6.24; to “TATTTTTTTTGTCATATATAAGAAACGCTCTTCTTT [TGCATGCA_negctrl_site127]”, 6.5; to “ATATTTATATTTTCATGTACGTATTTTTATATATAT [XGTACX_site8478]”, 6.73.
“AATTATATATTATAATGTACATATATATAACTATAC [XGTACX_site1865]”: the “gcPBM binding intensity (ln)” value was 6.23.
“ATAAAGGAAATTACAAGTACAAATAAGATAAAATAA [XGTACX_site4514]”: the “gcPBM binding intensity (ln)” value stood at 6.61.
Consider “AAAGAAATGAAATATACACACATACATAAATACATA [CACACA_site6081]”, for which the “gcPBM binding intensity (ln)” value was 6.68.
Then “TATAAAAAAAGAGGAGGGATGGTATACTTGTGGTTT [TGCATGCA_negctrl_site49]”, with 6.32; and “ATATATTTAAACTACACACGCATATCTTAGAAATAA [CACACA_site1272]”, with 6.44.
For “ATAGACAGCGCACAAACACACAAACACAGACCCCCA [CACACA_site4409]”, the “gcPBM binding intensity (ln)” value was found to be 7.41.
On to “TTTTTTTTATGGTACACACACGCGTATGGTTGCACG [CACACA_site1877]”, for which the “gcPBM binding intensity (ln)” value was 7.45.
To TTATTTTTGTTCATAGTGCATAGAATTTATACATAT belongs 7.93.
On to “TTGTAAATTTCTGGTTATATATTTTATGTATATGTT [CACACA_negctrl_site1443]”, for which the “gcPBM binding intensity (ln)” value was determined as 6.6.
To “TTTTTTTCTTTTCAAACACACAATTGGTATATATCA [CACACA_site7542]” belongs 6.48; to “ATTTATTTATTGGCACGTACAAATTTGTGTTTTCCA [XGTACX_site6978]”, 7.02.
To “AATAAAAAGGAACACACACACACACGGATATAAATA [CACACA_site7658]” belongs 7.15; to “TATTTTACATCTTCTCACATTTTATCACTTTTTAAA [CACACA_negctrl_site330]”, 6.69.
Turning to “TCATAGTATAGACACACACACACACGCATATAAATA [CACACA_site6915]”, the “gcPBM binding intensity (ln)” value was found to be 6.91.
Then “TCTTTGTAAATTTCTTGTACGTAAATTTTTTTTAGG [XGTACX_site7062]”, with 6.68; and “TGTATATATAAACATGCACACGTGGTTGTATATATA [CACACA_site9078]”, with 8.31; and “AATATTTTAAAAAAAAGTACATTATATATATATGTT [XGTACX_site8073]”, with 6.19.
To “TGTAGTCTGGAGAAGAGTACACAGTATCTGGTAACA [XGTACX_site2038]” belongs 5.83.
As to “TAGTATTAAAATATTTGTACTTATATGTATTATATA [XGTACX_site538]”, the “gcPBM binding intensity (ln)” value is 6.1.
Consider “AGAATTCGTTTAAAAAGTACATTCAATTTAATAATG [XGTACX_site6603]”, for which the “gcPBM binding intensity (ln)” value is 5.9.
Then “AGAATATGTTAAAAAAGTACATACTCTTTATATACG [XGTACX_site79]”, with 6.18.
Regarding “TAAAAAAAAACATATACACACAAAAACGTACACATA [CACACA_site1354]”, the “gcPBM binding intensity (ln)” value amounted to 6.84.
As to “TTTTTTTCTCACAATCGTACATAAATACATATATAT [XGTACX_site3150]”, the “gcPBM binding intensity (ln)” value stood at 6.71.
Turning to “TATATTTTTTAAACCACACACAATATAGAGTAGAAT [CACACA_site613]”, the “gcPBM binding intensity (ln)” value is 6.91.
For the sequence “TAATGTACATAAACCGCACACATATAAAAAAATAAA [CACACA_site2851]”, the “gcPBM binding intensity (ln)” value turned out to be 6.79.
For “AGGGGAAATAAAATATAAATTATCATATATATATAT [XGTACX_negctrl_site366]”, the “gcPBM binding intensity (ln)” value worked out at 9.07.
Then “AAAAAAAATGATAATATACACACTTATGGGAGAGCG [CACACA_site2516]”, with 6.28.
